# Assay results taken from PubChem BioAssay AID504466 (National Center for Advancing Translational Sciences (NCATS), 2011).
# About 4,200 (1.3%) of roughly 330,000 compounds were called active. The shares of active, inactive and inconclusive entries below differ from those in the screen. Calls come from the whole dose curve; as a rule, active = well fitted activation curve with a large enough effect; inconclusive = small, poorly fitted or top-dose-only effect; inactive = no such curve, though single readings can be large or run the other way. A potency beside an inconclusive call is a rough fit, not a confirmed value.
# Assay: qHTS screen for small molecules that induce genotoxicity in human embryonic kidney (HEK293T) cells expressing luciferase-tagged ELG1; note: nearly all actives have a fitted effect of over 60% in size; for activity change, positive = activation: % of control where 0% means no effect
# Conditions: HEK293T ELG1-luciferase reporter, luminescence, 16 h; series mostly up to 46 µM; activity change, positive = activation: at the top concentration
# Summary of the method: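 Genotoxicity was scored as increased ELG1-luciferase reporter signal, measured by ONE-Glo luminescence (30 min, room temperature). Compound or vehicle exposure of the HEK293T reporter cells lasted 16 hr at 37°C.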
# Potency is the fitted concentration of half-maximal effect; tags give direction and shape of the fitted curve.
SMILES,Potency,"activity change, positive = activation"
COC(=O)C(C)N1C(=O)S/C(=C/c2cc(C)n(C(C)C)c2C)C1=O (stereo not drawn),"inconclusive: 13 µM [activator, partial curve, poor fit]",
Cc1ccc(NC(=O)Cn2nnc3ccccc32)cc1,"inconclusive: 18.3 µM [activator, single point]",
CNc1nc(Cl)nc(NC(C)(C)C)n1,"inconclusive: 18.4 µM [activator, partial curve, poor fit]",
COc1ccccc1-c1cc(C(=O)N2CCOCC2)no1,active: 2.91 µM,
COc1ccc(OC)c2sc(N(CCCN(C)C)C(=O)c3ccc(S(=O)(=O)N4CCc5ccccc5C4)cc3)nc12,"inconclusive: 6.51 µM [activator, partial curve, poor fit]",
O=C(CS(=O)(=O)c1ccccc1)c1ccc2c(c1)OCCO2,"inconclusive: 9.2 µM [activator, partial curve]",
COc1ccc(/C(N)=N/OC(=O)CC2CCCCC2)cc1,"inconclusive: 20.6 µM [activator, single point]",
COC(=O)[C@@H](N)CS,,inactive: -3.4%
COc1ccc(OCc2cc(C(=O)N3CCCCCCC3)no2)c(Cl)c1,"inconclusive: 16.4 µM [activator, partial curve, poor fit]",
Cc1ccc(C)c(-n2ccnc2SCC(=O)c2c(N)n(C3CC3)c(=O)[nH]c2=O)c1,,inactive: -3.81%
N#Cc1c(-c2ccc(Cl)cc2)ccn2nc(C3CCCCC3)nc12,"inconclusive: 2.51 µM [activator, full curve, poor fit]",
CCOC(=O)c1ccc2nc3c(cc2c1)CCS3,"inconclusive: 20.6 µM [activator, partial curve, poor fit]",
C=CCn1c(SCC(=O)NCC)nc2sc3c(c2c1=O)CCC3,"inconclusive: 18.3 µM [activator, partial curve, poor fit]",
CC(=O)c1cnc2nc(SCc3ccc(C)cc3)nn2c1C,,inactive: 0.0709%
COc1ccc(C(=O)COc2ccc(C)cc2NC(C)=O)cc1,"inconclusive: 2.06 µM [activator, full curve, poor fit]",
CN(C(=O)CC(NC(=O)c1ccccc1Cl)c1ccccc1)c1ccccc1 (stereo not drawn),,inactive: 1.42%
COc1ccc2oc(=O)c(-c3nc4ccccc4o3)cc2c1,"inconclusive: 11.6 µM [activator, partial curve, poor fit]",
Cc1ccc(NC(=O)c2cc3cccc([N+](=O)[O-])c3[nH]2)cc1,"inconclusive: 2.59 µM [activator, partial curve]",
COc1cc2nc(N(CCCN(C)C)C(=O)c3ccc(S(=O)(=O)N4CCc5ccccc5C4)cc3)sc2cc1OC,"inconclusive: 23.1 µM [activator, single point]",
Cc1ccccc1Nc1nc(N)nc(CSc2ccc(F)cc2)n1,active: 8.2 µM,
CCCCOc1cccc(-c2nnc(N)s2)c1,"inconclusive: 23.1 µM [activator, single point]",
Cn1cc(SCC(=O)Nc2nc3ccccc3s2)c2ccccc21,"inconclusive: 29.1 µM [activator, single point]",
CC(=O)c1cccc(NC(=O)c2ccc(-c3ccccc3[N+](=O)[O-])o2)c1,"inconclusive: 4.61 µM [activator, single point]",
CCn1c(C)nc2cc(C(=O)NNC(=O)c3ccc(C)cc3)ccc21,"inconclusive: 18.3 µM [activator, partial curve]",
NC(=O)c1cc2c3ccccc3ccn2c1-c1ccccc1,active: 11.6 µM,

SMILES,Potency,"activity change, positive = activation"
O=C(OCc1ccc(F)cc1Cl)c1ccccn1,,inactive: -6.77%
Cc1cc(C)cc(NC2=C(N)C(=O)c3ccccc3C2=O)c1,"inconclusive: 20.6 µM [activator, partial curve, poor fit]",
Cc1noc(NS(=O)(=O)c2ccc(NC(=O)c3cc4ccccc4o3)cc2)c1C,,inactive: 3.25%
O=C(NCc1ccco1)/C(=C\c1ccco1)NC(=O)c1cccs1,,inactive: 0.52%
COc1cc(NC(=O)CCN2CC(C)OC(C)C2)cc(OC)c1 (stereo not drawn),,inactive: 0.0631%
Cc1ccc(-c2nc(NCCN(C)C)c3ccccc3n2)cc1,"inconclusive: 20.6 µM [activator, single point]",
CS(=O)(=O)N(CC(=O)O)c1cc(C(F)(F)F)ccc1Cl,,inactive: -0.769%
COc1ccc2oc(C(=O)OCC(=O)Nc3cc(S(=O)(=O)N4CCOCC4)ccc3C)c(C)c2c1,"inconclusive: 5.8 µM [activator, single point]",
Cc1cc(CSc2ccccc2)ccc1NC(=O)c1ccc(Cl)c([N+](=O)[O-])c1,,inactive: -1.46%
O=C(Nc1ccnn1C1CCN(C2CCC2)CC1)c1ccccc1,,inactive: 1.67%
CC(=O)[C@@H]1[C@@H]2C(=O)N(Cc3ccccc3)C(=O)[C@@H]2C2c3ccccc3C=CN21 (stereo partly drawn),,inactive: -2.02%
CCc1ccccc1NC(=O)c1cc(-c2cccc(O)c2)on1,"inconclusive: 9.2 µM [activator, partial curve, poor fit]",
N=c1c(C(=O)NC2CCCCC2)cc2c(=O)n3ccccc3nc2n1Cc1ccc(F)cc1,,inactive: -9.25%
Cc1ccc(-n2ncc(Cl)c2C(=O)NC2CC2)cc1,"inconclusive: 18.3 µM [activator, partial curve]",
COc1cc(/C=N/NC(=O)c2ccccn2)ccc1OC(=O)c1cccs1,"inconclusive: 18.3 µM [activator, partial curve]",
Cc1c(Cl)cccc1Nc1nc(N)nc(CSc2ncccn2)n1,active: 16.4 µM,
Cc1ccc(C(=O)N/N=C\c2ccc(OC(=O)c3cccs3)cc2)cn1,,inactive: 4.75%
CS(=O)(=O)N1N=C(c2ccccc2)CC1c1ccc2nccnc2c1 (stereo not drawn),,inactive: 0.299%
COCCn1cnc2c(c1=O)c1nc3ccccc3nc1n2/N=C/c1cccc(OC)c1,,inactive: -2.99%
O=C(Nc1ccc2nc(C3CC3)n(Cc3ccccc3)c(=O)c2c1)C1CC1,"inconclusive: 5.8 µM [activator, partial curve, poor fit]",
c1ccc2c(c1)oc1c(NCCCn3ccnc3)ncnc12,,inactive: 3.38%
Cc1[nH]c2ccccc2c1/C=N/NC(=O)c1cccs1,"inconclusive: 20.6 µM [activator, single point]",
O=C1CSC(=O)N1CC(O)COc1ccc(Cl)cc1 (stereo not drawn),"inconclusive: 7.31 µM [activator, single point]",
Cc1cccc(/C(N)=N/OC(=O)CCC2CCCCC2)c1,"inconclusive: 18.4 µM [activator, partial curve, poor fit]",
Cc1ccc(C2NNC(=O)C2NC(=O)c2ccccc2)cc1 (stereo not drawn),"inconclusive: 18.4 µM [activator, single point]",

SMILES,Potency,"activity change, positive = activation"
COc1ccc(C(=O)Nc2nccs2)cc1OC,"inconclusive: 15.8 µM [activator, single point]",
CC1=Nc2ccccc2N=C(NC(=O)/C=C/C(=O)O)C1c1ccccc1 (stereo not drawn),"inconclusive: 23.1 µM [activator, partial curve, poor fit]",
O=Cc1ccc(-c2nc3ccccc3s2)o1,"inconclusive: 4.11 µM [activator, partial curve, poor fit]",
COCCNC(=O)c1c(N)n(CCC2=CCCCC2)c2nc3ccccc3nc12,,inactive: -5.7%
CCCn1nc(C(=O)NNC(=O)CCCOc2ccc(C)cc2)c2ccccc2c1=O,,inactive: -9.09%
CCc1nnc(NS(=O)(=O)c2ccc(N/C=C/C(=O)c3ccc(OC)cc3)cc2)s1,"inconclusive: 29.1 µM [activator, single point]",
O=C(c1ccc(Br)o1)N1CCc2ccccc21,"inconclusive: 3.66 µM [activator, full curve]",
Cc1nc(NC(=O)CSc2nc3cccnc3n2C2CCCCC2)sc1C,"inconclusive: 25.9 µM [activator, partial curve, poor fit]",
CCOC(=O)c1sc(Nc2ccccc2Cl)nc1C,"inconclusive: 23.1 µM [activator, partial curve]",
Nc1c(Cl)cc2c(c1Oc1ccccc1)C(=O)c1ccccc1C2=O,"inconclusive: 7.31 µM [activator, partial curve]",
COc1ccccc1NC(=O)Nc1ccc2c(c1)nnn2C,active: 13 µM,
O=C(Nc1ccncc1)c1cccc(S(=O)(=O)N2CCN(c3ccc(F)cc3)CC2)c1,,inactive: -6.14%
O=C(NC(=S)Nc1nc2ccccc2s1)c1ccco1,"inconclusive: 3.26 µM [activator, full curve, poor fit]",
CCCCOC(=O)Nc1nnc(C(C)C)s1,"inconclusive: 18.3 µM [activator, single point]",
CN1/C(=C\C=C2/SC(=S)N(CC(=O)O)C2=O)C(C)(C)c2ccccc21,,inactive: -5.02%
CCOc1ccc2oc(C(=O)Nc3ccc4c(c3)OCO4)c(C)c2c1,"inconclusive: 5.17 µM [activator, partial curve]",
NC(=O)c1sc2nnc(-c3ccccc3)c(-c3ccccc3)c2c1N,,inactive: -2.84%
Cn1c(SCC(=O)Nc2ccc(F)cc2)nc2c([nH]c3ccccc32)c1=O,"inconclusive: 23.1 µM [activator, single point]",
Cc1ccc(CSc2nc3c(c(N(C)C)n2)CCCC3)cc1,"inconclusive: 20.6 µM [activator, single point]",
O=C(NCc1ccncc1)Nc1ccc2c(c1)OCO2,,inactive: 6.83%
CSc1ccccc1-c1nnc(-c2ccc(C)cc2)o1,"inconclusive: 5.8 µM [activator, partial curve]",
COc1ccc(-n2nnnc2SCC(=O)NC(=O)Nc2ccc3c(c2)OCCO3)cc1,"inconclusive: 18.4 µM [activator, partial curve]",
COc1ccc(/C=C/c2nc3ccccc3n2Cc2ccc(OC)c(OC)c2)cc1,active: 2.06 µM,
